These results are taken from patent US20240409647A1 (SINOMAB BIOSCIENCE, published 2024).

Test [1] addresses T1, human IL-33 (R&D systems) (human, UniProt O95760 112-270).
T1 sequence (looked up): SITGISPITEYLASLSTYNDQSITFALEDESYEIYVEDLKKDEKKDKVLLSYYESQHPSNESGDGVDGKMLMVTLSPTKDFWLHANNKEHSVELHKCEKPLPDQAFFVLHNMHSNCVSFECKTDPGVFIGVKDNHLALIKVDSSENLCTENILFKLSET
Nature of the test: BLI (Octet RED96), binder captured via anti-human Fab CH1, IL33 in solution.

The target of a further test is T2, human TSLP (R&D systems) (human, UniProt Q969D9 29-159).
T2 construct: also called thymic stromal lymphopoietin
Nature of the test: ELISA, coated antigen 2 µg/mL. A general note: An ELISA detects its analyte on a solid surface through an enzyme-linked reagent.

B1: SM17-hST2 (other)
heavy: QVQLVQSGAEVKKPGASVKVSCKASGYTFISYWMNWVRQAPGQGLEWMGRIDPYDSEIQYNQKFKDRVTMTRDTSISTAYMELSRLRSDDTAVYYCARSGGFDWFAYWGQGTLVTVSSASTKGPSVFPLAPCSRSTSESTAALGCLVKDYFPEPVTVSWNSGALTSGVHTFPAVLQSSGLYSLSSVVTVPSSSLGTKTYTCNVDHKPSNTKVDKRV[sequence of human IgG4 Fc with S228P (EU numbers) not given]GGGSGGGGSGGGGSKFSKQSWGLENEALIVRCPRQGKPSYTVDWYYSQTNKSIPTQERNRVFASGQLLKFLPAAVADSGIYTCIVRSPTFNRTGYANVTIYKKQSDCNVPDYLMYSTVSGSEKNSKIYCPTIDLYNWTAPLEWFKNCQALQGSRYRAHKSFLVIDNVMTEDAGDYTCKFIHNENGANYSVTATRSFTVKDEQGFSLFPVIGAPAQNEIKEVEIGKNANLTCSACFGKGTQFLAAVLWQLNGTKITDFGEPRIQQEEGQNQSFSNGLACLDMVLRIADVKEEDLLLQYDCLALNLHGLRRHTVRLSRKNPSKECF
light: DIQMTQSPSSLSASVGDRVTITCRASENINSNLAWYQQKPGKAPKLLLYDVTNLADGVPSRFSGSGSGTDYTLTISSLQPEDFATYYCQHFWGPPYTFGGGTKVEIKRTVAAPSVFIFPPSDEQLKSGTASVVCLLNNFYPREAKVQWKVDNALQSGNSQESVTEQDSKDSTYSLSSTLTLSKADYEKHKVYACEVTHQGLSSPVTKSFNRGEC
notes: Antibody-receptor fusion: SM17 IgG with the human ST2 extracellular domain fused to each heavy chain; also called SM-17-human ST2; SM17-ST2
One may read the Kd as the constant that tells how readily two partners part at equilibrium. The low end stands for tighter binding, the high end for weaker binding. What is called koff is the rate constant with which the complex falls apart. Higher therefore signals fast dissociation. A word on the kon: it is the rate constant with which the complex forms. A low value points to slower complex formation. In test [1], B1 displayed a Kd of 0.407 nM, an off-rate constant (koff) of 0.000226 s⁻¹ and a kon of 556000 M⁻¹ s⁻¹. Also, the binding result with human TSLP (R&D systems) was “no binding (tested: 33.5 nM)”.
